# Assay results published in PubChem BioAssay (Tox21).
# Values joined by “and” are separate entries in the source; they are usually repeats but may differ in a detail not shown here. Identical values can stand only once. This list was built around the results that the source calls inconclusive (neither active nor inactive); the mix of calls is not that of the screen. For some of these results: Potencies of inconclusive entries are doubtful fits and often do not repeat. Active and inactive are the calls of the source. Unless noted, calls come from the whole dose curve; as a rule, active = well fitted curve in the direction sought with a large enough effect in the repeat runs; inconclusive = weak or mixed curves; inactive = no such curve, though single readings can be large; an effect the other way counts as inactive or inconclusive.
# What was measured:
# [1] = molecular target: Acetylcholinesterase (Homo sapiens) (UniProt P22303); assay: Acetylcholinesterase (AChE) small molecule antagonists: enzyme-based qHTS assay with human liver microsomes (AID 1347399; calls by dose curve; note: potency is the fitted concentration of half-maximal effect; nearly all actives have a fitted effect of over 60% in size); details: Potency: qHTS inhibition; series mostly up to 115 µM
# Chain of UniProt P22303 (P22303 whole entry, looked up): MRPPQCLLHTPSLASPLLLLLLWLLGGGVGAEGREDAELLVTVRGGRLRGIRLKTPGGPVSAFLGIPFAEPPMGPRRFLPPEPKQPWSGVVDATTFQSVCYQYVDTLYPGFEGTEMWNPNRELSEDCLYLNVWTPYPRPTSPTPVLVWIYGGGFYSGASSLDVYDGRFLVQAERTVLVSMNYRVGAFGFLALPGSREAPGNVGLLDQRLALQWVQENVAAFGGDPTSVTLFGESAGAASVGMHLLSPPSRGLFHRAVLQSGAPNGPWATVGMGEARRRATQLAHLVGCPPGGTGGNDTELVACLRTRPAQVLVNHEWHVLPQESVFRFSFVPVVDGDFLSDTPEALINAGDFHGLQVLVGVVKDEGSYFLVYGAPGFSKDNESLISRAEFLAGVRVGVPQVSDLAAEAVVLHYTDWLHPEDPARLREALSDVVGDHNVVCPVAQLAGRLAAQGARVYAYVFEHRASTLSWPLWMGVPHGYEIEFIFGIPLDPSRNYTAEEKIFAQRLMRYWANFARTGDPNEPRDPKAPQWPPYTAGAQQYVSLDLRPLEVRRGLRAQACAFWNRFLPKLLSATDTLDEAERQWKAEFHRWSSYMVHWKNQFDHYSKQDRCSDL
# Method in brief: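 Recombinant human AChE (50 mU/mL in the enzyme mix) and human liver microsomes (0.25 mg/mL final) were preincubated with compound and NADPH (0.25 mg/mL final) for 30 min at 37 C. Acetylthiocholine/DTNB was then added; thiocholine was read colorimetrically after 10 min at room temperature.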
# [2] = molecular target: Nuclear receptor subfamily 1 group I member 2 (Homo sapiens) (UniProt O75469); assay: Human pregnane X receptor (PXR) activation by small molecules, qHTS assay (AID 1346985); details: DPX-2 HepG2 CYP3A4-luciferase, 24 h; series mostly up to 38.3 µM; note: nearly all actives have a fitted effect of over 40% in size
# Method in brief: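 DPX-2 cells (HepG2 co-transfected with a PXR response element and a CYP3A4-promoter luciferase construct) were seeded at 2,000 per well, rested 5 hr at 37C, then exposed to DMSO-dissolved compounds for 24 hr. Activation was read as luciferase luminescence.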
# [3] = molecular target: Androgen receptor (Homo sapiens) (UniProt P10275); assay: qHTS assay to identify small molecule antagonists of the androgen receptor (AR) signaling pathway using the MDA cell line in the presence of 0.5 nM R1881 (AID 1259243); details: MDA-kb2 MMTV-luciferase, R1881 0.5 nM, 16 h; series mostly up to 92.4 µM; note: potency is the fitted concentration of half-maximal effect; nearly all actives have a fitted effect of over 50% in size
# Chain of UniProt P10275 (P10275 whole entry, looked up): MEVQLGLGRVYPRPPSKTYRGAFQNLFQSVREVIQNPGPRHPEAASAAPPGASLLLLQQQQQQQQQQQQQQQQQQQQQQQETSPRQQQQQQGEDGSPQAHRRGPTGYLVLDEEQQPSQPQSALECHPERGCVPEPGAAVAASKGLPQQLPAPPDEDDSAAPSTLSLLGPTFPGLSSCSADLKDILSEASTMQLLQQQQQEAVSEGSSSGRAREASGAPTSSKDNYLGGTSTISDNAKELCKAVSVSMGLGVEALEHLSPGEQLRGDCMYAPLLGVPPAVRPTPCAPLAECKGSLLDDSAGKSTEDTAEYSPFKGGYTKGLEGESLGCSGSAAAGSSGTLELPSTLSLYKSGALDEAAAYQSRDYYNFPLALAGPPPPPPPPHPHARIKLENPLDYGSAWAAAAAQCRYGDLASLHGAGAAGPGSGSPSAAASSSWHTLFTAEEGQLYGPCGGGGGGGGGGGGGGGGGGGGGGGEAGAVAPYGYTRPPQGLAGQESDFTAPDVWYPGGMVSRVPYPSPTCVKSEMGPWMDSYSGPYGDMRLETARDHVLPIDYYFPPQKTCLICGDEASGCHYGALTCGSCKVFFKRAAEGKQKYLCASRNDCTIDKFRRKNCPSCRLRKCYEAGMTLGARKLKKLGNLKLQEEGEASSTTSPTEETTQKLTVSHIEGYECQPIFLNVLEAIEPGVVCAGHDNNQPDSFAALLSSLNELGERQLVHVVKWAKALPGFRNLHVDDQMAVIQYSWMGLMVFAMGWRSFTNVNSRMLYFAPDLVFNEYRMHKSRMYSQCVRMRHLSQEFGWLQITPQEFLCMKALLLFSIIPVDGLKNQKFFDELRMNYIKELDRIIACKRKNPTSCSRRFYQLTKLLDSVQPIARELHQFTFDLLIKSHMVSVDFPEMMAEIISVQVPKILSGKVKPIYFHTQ
# Method in brief: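 Reporter cells cultured without CO2 receive test chemicals, then 0.5 nM R1881 final; after 16 hr at 37C, ONE-Glo is added and light output recorded.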
# [4] = A CellTox Green Cytotoxicity Assay to monitor cytotoxicity in HEK293 cells - 0 hour (AID 1224869); details: CellTox Green fluorescence; series mostly up to 76.8 µM; note: potency is the fitted concentration of half-maximal effect; nearly all actives have a fitted effect of over 50% in size
# Method in brief: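 Fluorescence intensity, read at 0, 8, 16, 24, 32 and 40 h of compound treatment, reflected dye binding to DNA of dead HEK293 cells; compounds (23 nL, DMSO) were added 5 h after plating cells with reagent.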
# Tags give direction and shape of the fitted curve.
smiles,measurement,setting,value
CCOP(=S)(OCC)Oc1ccc([N+](=O)[O-])cc1,Potency,[1],active: 905 nM and active: 616 nM
O=c1[nH]c(=O)n(Cl)c(=O)n1Cl,Potency,[2],inactive
Nc1c(Br)cc([N+](=O)[O-])cc1[N+](=O)[O-],Potency,[3],inconclusive: 27.6 µM [inhibitor]
O=CC=O,Potency,[4],"inconclusive: 0.2 µM [activator, single point]"
